We go through 53 sequences from paper PMC6451091.

The list shows a part of the results. For some assays here: At the low end of the ranking the order means little. For some assays here: The protein was read in a cell extract, so binding may be indirect.

What all share (conditions): 20 mM HEPES pH 7.9, 100 mM NaCl, 1 mM DTT, 0.2 mg/mL BSA, 0.02% Triton X-100, 2% milk, 0.4 mg/mL salmon testes DNA; 1 h; temperature not stated; high values mean tight binding; double strand, one strand shown; sequences stand for … in GCCTAGCAC…GTGCTAGGTCTTGATTCGCTTGACGCTGCTG
Assay [1] concerns the target PU.1 (IVT) (UniProt P17947). The assay can be described thus: protein-binding microarray (PBM).
Assay [2] deals with PU.1 (endogenous, THP-1 nuclear extract) (UniProt P17947). The experiment in a line: nuclear extract protein-binding microarray (nextPBM).
Assay [3] deals with T1, FLI1 (endogenous, THP-1 nuclear extract) (UniProt Q01543).
T1 sequence: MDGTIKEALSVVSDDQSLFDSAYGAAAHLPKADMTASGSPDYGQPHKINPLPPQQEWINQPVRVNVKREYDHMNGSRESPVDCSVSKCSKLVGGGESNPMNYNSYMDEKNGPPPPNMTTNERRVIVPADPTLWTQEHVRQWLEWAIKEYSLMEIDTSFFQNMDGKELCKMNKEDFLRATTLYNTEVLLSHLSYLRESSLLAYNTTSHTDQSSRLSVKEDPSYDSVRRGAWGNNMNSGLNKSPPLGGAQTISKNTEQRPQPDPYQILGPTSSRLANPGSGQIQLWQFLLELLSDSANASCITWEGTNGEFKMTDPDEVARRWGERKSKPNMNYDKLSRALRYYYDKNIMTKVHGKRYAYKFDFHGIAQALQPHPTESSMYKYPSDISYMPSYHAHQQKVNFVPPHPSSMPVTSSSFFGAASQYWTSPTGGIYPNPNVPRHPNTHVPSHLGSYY
Described as above.

Assay [4] relates to PU.1 (endogenous, THP-1 nuclear extract) + IRF8 (endogenous, THP-1 nuclear extract). The assay is described as above.

For GAGGGAACTGAAGATCTGAG, the binding signal in assay [1] was -0.208 z-score; in assay [2], 0.439 z-score; in assay [3], 0.0483 z-score; in assay [4], -0.274 z-score.
In the same order, the values of GACATTTTAGGAAAAGAGAA are 5.87 z-score, 6.34 z-score, 2.54 z-score and 0.0826 z-score.
For CTCATGCTCCAGTTGAAGTT, the binding signal in assay [1] is 0.331 z-score; in assay [2], -0.128 z-score; in assay [3] it was -0.506 z-score; in assay [4] it was -0.505 z-score.
In the same order, the values of AGGTGCCCTTATAGGCAAAG are -0.384 z-score, -0.201 z-score, -0.323 z-score and -1.24 z-score.
The like results for GGCATTGAGAGAAAATGGGC were, in that order, -0.0833 z-score, -0.501 z-score, -0.305 z-score and -1.53 z-score.
As to TTTCAGTCTTCAATCCCTGA, the binding signal was -0.1 z-score in assay [1], -0.173 z-score in assay [2], -0.561 z-score in assay [3] and 3.75 z-score in assay [4].
On to AGGAAGGAAGCCTGCAGACA, for which the binding signal is 0.439 z-score in assay [1], 0.536 z-score in assay [2], 2.6 z-score in assay [3] and -1.16 z-score in assay [4].
For TGCACCACCCATTGGATCAT, the binding signal in assay [1] is -0.807 z-score; in assay [2], -0.428 z-score; in assay [3], -0.269 z-score; in assay [4] it was -0.348 z-score.
As to AACTTCCCTTTTCTCTTAAC, the binding signal in assay [1] amounted to 8.26 z-score; in assay [2], 6.83 z-score; in assay [3], 3.91 z-score; in assay [4] it was 1.67 z-score.
Consider ACAACCTTGCACATCTTTTC, for which the binding signal in assay [1] is -0.0629 z-score; in assay [2], -0.443 z-score; in assay [3] it was -0.382 z-score; in assay [4], 1.12 z-score.
Take AGCCCCAAGGCCGCTTGCCC: the binding signal in assay [1] is -0.923 z-score; in assay [2], -0.428 z-score; in assay [3] it was -1.37 z-score; in assay [4], 2.13 z-score.
For CACAGAATATGGAGGAAAAT, the binding signal in assay [1] is 0.135 z-score; in assay [2], -0.0327 z-score; in assay [3], 0.741 z-score; in assay [4] it was 0.0202 z-score.
Regarding TGGGCCCTGGTACTGAAGAC, the binding signal in assay [1] was -0.942 z-score; in assay [2] it was -0.283 z-score; in assay [3] it was -0.775 z-score; in assay [4], 0.469 z-score.
In the same order, the values of ACCACCTTATACCTTAATTT are 0.00219 z-score, 0.0115 z-score, 0.375 z-score and 0.741 z-score.
The like results for GATCCCCAAACGGAAAGAAA were, in that order, -0.0793 z-score, 0.246 z-score, 1.78 z-score and 0.211 z-score.
Regarding TTTAGATTTTTTAAGTGAGT, the binding signal is -0.283 z-score in assay [1], -0.474 z-score in assay [2], -0.363 z-score in assay [3] and -0.59 z-score in assay [4].
The like results for ATTGCAGTGAGCTGTGACCA were, in that order, -0.421 z-score, -0.47 z-score, -0.555 z-score and -1.28 z-score.
Consider GAAGCAGAGATTAAAGTAAA, for which the binding signal in assay [1] was -0.32 z-score; in assay [2], -0.596 z-score; in assay [3], -0.393 z-score; in assay [4], -0.464 z-score.
In the same order, the values of GCGCGCCGTTACCGGCCCAG are -0.815 z-score, -0.475 z-score, 0.0365 z-score and 0.782 z-score.
As to TTGCAGAAGCCGCGAGTGAG, the binding signal in assay [1] is -0.0514 z-score; in assay [2], -0.012 z-score; in assay [3], -0.882 z-score; in assay [4], 0.0111 z-score.
Take TACATTTTCTTATGCTTCCC: the binding signal in assay [1] is 0.394 z-score; in assay [2] it was 0.118 z-score; in assay [3], 1.39 z-score; in assay [4] it was -0.0763 z-score.
In the case of TGCTTAGAAAGGACCAGATT, the binding signal is -0.552 z-score in assay [1], -0.12 z-score in assay [2], -1.08 z-score in assay [3] and -0.0479 z-score in assay [4].
Consider TGGAAAACTGCGTGAAACCA, for which the binding signal in assay [1] is -0.784 z-score; in assay [2], -0.81 z-score; in assay [3], 0.0119 z-score; in assay [4] it was 1.94 z-score.
In the case of CTACTAGGCTTTATGGTTAG, the binding signal in assay [1] is -0.437 z-score; in assay [2] it was -0.356 z-score; in assay [3] it was -0.094 z-score; in assay [4], 0.226 z-score.
For CAGGCGAGGTGTTGGAGGAA, the binding signal in assay [1] turned out to be 4.86 z-score; in assay [2], 5.29 z-score; in assay [3] it was 3.57 z-score; in assay [4], 1.29 z-score.
In the same order, the values of TTCCCGTGACTTAGACTCAA are 3.38 z-score, 2.71 z-score, 2.71 z-score and -0.78 z-score.
Turning to TCCAGGACTGCCTGAAAGCT, the binding signal in assay [1] is -0.402 z-score; in assay [2], -0.12 z-score; in assay [3], -0.228 z-score; in assay [4], -1.21 z-score.
Regarding TGGCCGTGATAAGGCACCCC, the binding signal is -0.92 z-score in assay [1], -0.339 z-score in assay [2], -0.328 z-score in assay [3] and 0.861 z-score in assay [4].
Take AAATGTCCCCTGTGGCAACA: the binding signal was -0.341 z-score in assay [1], -0.276 z-score in assay [2], -0.58 z-score in assay [3] and 1.58 z-score in assay [4].
The like results for CTCCCAGAAAGCAGAACAAA were, in that order, 4.47 z-score, 4.73 z-score, 1.07 z-score and 0.294 z-score.
For TAAAGGACTGCCTGAAACCA, the binding signal in assay [1] was -0.0217 z-score; in assay [2] it was -0.211 z-score; in assay [3], -0.245 z-score; in assay [4], 2.62 z-score.
The like results for TTTTCTATCTCTCCCTTCTA were, in that order, -0.293 z-score, -0.358 z-score, -0.318 z-score and 0.228 z-score.
In the same order, the values of GCTTAGTCAGCATGGGTTCT are -0.41 z-score, -0.327 z-score, -0.289 z-score and 0.973 z-score.
Regarding CGGAATACAGAAGAAAGGAC, the binding signal in assay [1] was 0.336 z-score; in assay [2] it was 0.491 z-score; in assay [3], 1.86 z-score; in assay [4], -0.78 z-score.
AAATGAACTTCAAAAAAGGA: the binding signal in assay [1] was 0.169 z-score; in assay [2], -0.676 z-score; in assay [3] it was -0.307 z-score; in assay [4], -0.801 z-score.
On to CTGACTTTGGGTGACAGGCT, for which the binding signal in assay [1] is -0.506 z-score; in assay [2] it was -0.228 z-score; in assay [3], 0.0363 z-score; in assay [4], -0.394 z-score.
Consider TTTGAGTAGCAAGAGGTTAG, for which the binding signal was -0.0639 z-score in assay [1], -0.347 z-score in assay [2], 0.122 z-score in assay [3] and 0.777 z-score in assay [4].
Turning to CCGGGGGCGGGGCTTCGCCG, the binding signal is -0.429 z-score in assay [1], -1.15 z-score in assay [2], -0.0848 z-score in assay [3] and -4.81 z-score in assay [4].
Turning to GAGGTTGCATCTTTTAAGAG, the binding signal in assay [1] is -0.146 z-score; in assay [2], -0.417 z-score; in assay [3], -0.479 z-score; in assay [4], 0.253 z-score.
Regarding ACAAAAATACTATCTGACAC, the binding signal in assay [1] was -0.343 z-score; in assay [2], -0.588 z-score; in assay [3], -0.574 z-score; in assay [4], -0.401 z-score.
For TTATATGAAATGTCCAGGAG, the binding signal in assay [1] was -0.486 z-score; in assay [2], -0.0748 z-score; in assay [3], 0.238 z-score; in assay [4], -0.494 z-score.
The like results for GGTGGAACCCTCGAATTCTT were, in that order, -0.117 z-score, -0.466 z-score, -0.67 z-score and -0.136 z-score.
With GTCACTCTCAGATACTGCCA, the binding signal in assay [1] is -0.702 z-score; in assay [2] it was -0.346 z-score; in assay [3], -0.777 z-score; in assay [4], 1.12 z-score.
In the case of TGAGAGGCTGCGTGAAACCT, the binding signal in assay [1] is -0.683 z-score; in assay [2], -0.041 z-score; in assay [3], -0.456 z-score; in assay [4], 2.41 z-score.
Take TTGCCCTTCCCTCCCTCCTC: the binding signal in assay [1] worked out at 0.0537 z-score; in assay [2], 0.874 z-score; in assay [3], 0.425 z-score; in assay [4] it was 2.33 z-score.
In the same order, the values of TCTCAAAGCAGCTTGAAGCG are -0.977 z-score, -0.522 z-score, -1.04 z-score and -0.667 z-score.
With GGGATTAACCGGTGTTTCCT, the binding signal in assay [1] was -0.215 z-score; in assay [2], -0.339 z-score; in assay [3], 3.55 z-score; in assay [4], -0.536 z-score.
In the same order, the values of AAAAAAACTGCATGAAAGTA are -0.32 z-score, -0.465 z-score, -0.354 z-score and 2.47 z-score.
For GGGCAAGTCAGTTAATCTTG, the binding signal in assay [1] is -0.211 z-score; in assay [2], -0.507 z-score; in assay [3], 0.15 z-score; in assay [4] it was 0.0499 z-score.
Turning to CCTCGAACTCACCGCCGCCC, the binding signal in assay [1] is -0.99 z-score; in assay [2], -0.4 z-score; in assay [3] it was -0.469 z-score; in assay [4], 1.57 z-score.
Take TTTTTAGCTGCGTGAAACTA: the binding signal in assay [1] is -0.239 z-score; in assay [2], -0.567 z-score; in assay [3], -0.501 z-score; in assay [4], 2.96 z-score.
With AGCAAAAATTTTTAACCCAA, the binding signal in assay [1] was 0.222 z-score; in assay [2], -0.662 z-score; in assay [3] it was -0.457 z-score; in assay [4] it was -0.638 z-score.
For TGCTGTTATCAAGAGATGAA, the binding signal is 0.474 z-score in assay [1], 0.22 z-score in assay [2], -0.343 z-score in assay [3] and -0.78 z-score in assay [4].
